Test results published in the supplement of paper PMC8728848.
Some of the results follow.

Tests used:
Assay in all cases: glycan array binding signal (z-score within array); higher = stronger binding
Details in all cases: glycan notation: IUPAC condensed, linker removed
[1] = target: Fuc(a1-2)[Gal(a1-3)]Gal(b1-4)GlcNAc(b1-2)Man(a1-3)[Fuc(a1-2)[Gal(a1-3)]Gal(b1-4)GlcNAc(b1-2)Man(a1-6)]Man(b1-4)GlcNAc(b1-4)[Fuc(a1-6)]GlcNAc
Procedure, shortened: (§1)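 Glycan array data came from 3228 arrays in the Consortium for Functional Glycomics database, and only arrays with an available protein sequence were kept. Glycan names were put into IUPAC-condensed notation, and columns mapping to the same glycan were averaged. The binding signal is a within-array Z-score, averaged across arrays of one protein sequence run at different concentrations or buffers and across linkers. A negative Z-score can be read as non-binding.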

[2] = target: Fuc(a1-2)[Gal(a1-3)]Gal(b1-4)GlcNAc(b1-3)GalNAc
Procedure, shortened: as §1

[3] = target: Fuc(a1-2)[Gal(a1-3)]Gal(b1-4)GlcNAc(b1-3)[Fuc(a1-2)[Gal(a1-3)]Gal(b1-4)GlcNAc(b1-6)]GalNAc
Procedure, shortened: as §1

[4] = target: Fuc(a1-2)[Gal(a1-3)]Gal(b1-4)GlcNAc(b1-6)GalNAc
Procedure, shortened: as §1

[5] = target: Fuc(a1-2)[Gal(a1-3)]Gal(b1-4)[Fuc(a1-3)]Glc
Procedure, shortened: as §1

[6] = target: Fuc(a1-2)[Gal(a1-3)]Gal(b1-4)[Fuc(a1-3)]GlcNAc
Procedure, shortened: as §1

[7] = target: Fuc(a1-2)[Gal(a1-3)]Gal(b1-4)[Fuc(a1-3)]GlcNAc(b1-3)GalNAc
Procedure, shortened: as §1

[8] = target: Fuc(a1-2)[Gal(a1-4)]Gal(b1-4)GlcNAc
Procedure, shortened: as §1

[9] = target: Fuc(a1-2)[GalNAc(a1-3)]Gal
Procedure, shortened: as §1

[10] = target: Fuc(a1-2)[GalNAc(a1-3)]Gal(b1-3)GalNAc(a1-3)[Fuc(a1-2)]Gal(b1-4)GlcNAc
Procedure, shortened: as §1

[11] = target: Fuc(a1-2)[GalNAc(a1-3)]Gal(b1-3)GalNAc(b1-3)Gal(a1-4)Gal(b1-4)Glc
Procedure, shortened: as §1

[12] = target: Fuc(a1-2)[GalNAc(a1-3)]Gal(b1-3)GlcNAc
Procedure, shortened: as §1

[13] = target: Fuc(a1-2)[GalNAc(a1-3)]Gal(b1-3)GlcNAc(b1-2)Man(a1-3)[Fuc(a1-2)[GalNAc(a1-3)]Gal(b1-3)GlcNAc(b1-2)Man(a1-6)]Man(b1-4)GlcNAc(b1-4)GlcNAc
Procedure, shortened: as §1

[14] = target: Fuc(a1-2)[GalNAc(a1-3)]Gal(b1-3)GlcNAc(b1-2)Man(a1-3)[Fuc(a1-2)[GalNAc(a1-3)]Gal(b1-3)GlcNAc(b1-2)Man(a1-6)]Man(b1-4)GlcNAc(b1-4)[Fuc(a1-6)]GlcNAc
Procedure, shortened: as §1

[15] = target: Fuc(a1-2)[GalNAc(a1-3)]Gal(b1-3)GlcNAc(b1-3)GalNAc
Procedure, shortened: as §1

[16] = target: Fuc(a1-2)[GalNAc(a1-3)]Gal(b1-3)GlcNAc(b1-6)GalNAc
Procedure, shortened: as §1

[17] = target: Fuc(a1-2)[GalNAc(a1-3)]Gal(b1-4)Glc
Procedure, shortened: as §1

[18] = target: Fuc(a1-2)[GalNAc(a1-3)]Gal(b1-4)GlcNAc
Procedure, shortened: as §1

[19] = target: Fuc(a1-2)[GalNAc(a1-3)]Gal(b1-4)GlcNAc(b1-2)Man
Procedure, shortened: as §1

[20] = target: Fuc(a1-2)[GalNAc(a1-3)]Gal(b1-4)GlcNAc(b1-2)Man(a1-3)[Fuc(a1-2)[GalNAc(a1-3)]Gal(b1-4)GlcNAc(b1-2)Man(a1-6)]Man(b1-4)GlcNAc(b1-4)GlcNAc
Procedure, shortened: as §1

[21] = target: Fuc(a1-2)[GalNAc(a1-3)]Gal(b1-4)GlcNAc(b1-2)Man(a1-3)[Fuc(a1-2)[GalNAc(a1-3)]Gal(b1-4)GlcNAc(b1-2)Man(a1-6)]Man(b1-4)GlcNAc(b1-4)[Fuc(a1-6)]GlcNAc
Procedure, shortened: as §1

[22] = target: Fuc(a1-2)[GalNAc(a1-3)]Gal(b1-4)GlcNAc(b1-3)Gal(b1-4)GlcNAc
Procedure, shortened: as §1

[23] = target: Fuc(a1-2)[GalNAc(a1-3)]Gal(b1-4)GlcNAc(b1-3)Gal(b1-4)GlcNAc(b1-3)Gal(b1-4)GlcNAc
Procedure, shortened: as §1

[24] = target: Fuc(a1-2)[GalNAc(a1-3)]Gal(b1-4)GlcNAc(b1-3)GalNAc
Procedure, shortened: as §1

[25] = target: Fuc(a1-2)[GalNAc(a1-3)]Gal(b1-4)GlcNAc(b1-3)[Fuc(a1-2)[GalNAc(a1-3)]Gal(b1-4)GlcNAc(b1-6)]GalNAc
Procedure, shortened: as §1

[26] = target: Fuc(a1-2)[GalNAc(a1-3)]Gal(b1-4)GlcNAc(b1-6)GalNAc
Procedure, shortened: as §1

[27] = target: Fuc(a1-2)[GalNAc(a1-3)]Gal(b1-4)[Fuc(a1-3)]GlcNAc
Procedure, shortened: as §1

[28] = target: Fuc(a1-2)[GalNAc(a1-3)]Gal(b1-4)[Fuc(a1-3)]GlcNAc(b1-3)GalNAc
Procedure, shortened: as §1

[29] = target: Fuc(a1-2)[GalNAc(a1-4)]Gal(b1-4)GlcNAc
Procedure, shortened: as §1

[30] = target: Fuc(a1-2)[GalNAc(b1-3)]Gal
Procedure, shortened: as §1

[31] = target: Fuc(a1-3)GlcNAc
Procedure, shortened: as §1

[32] = target: Fuc(a1-3)[Gal(b1-4)]Glc6S
Procedure, shortened: as §1

[33] = target: Fuc(a1-3)[Gal(b1-4)]GlcNAc
Procedure, shortened: as §1

[34] = target: Fuc(a1-3)[Gal(b1-4)]GlcNAc(b1-2)Man
Procedure, shortened: as §1

[35] = target: Fuc(a1-3)[Gal(b1-4)]GlcNAc(b1-2)Man(a1-3)[Fuc(a1-3)[Gal(b1-4)]GlcNAc(b1-2)Man(a1-6)]Man(b1-4)GlcNAc(b1-4)GlcNAc
Procedure, shortened: as §1

[36] = target: Fuc(a1-3)[Gal(b1-4)]GlcNAc(b1-2)Man(a1-3)[Fuc(a1-3)[Gal(b1-4)]GlcNAc(b1-2)Man(a1-6)]Man(b1-4)GlcNAc(b1-4)[Fuc(a1-6)]GlcNAc
Procedure, shortened: as §1

[37] = target: Fuc(a1-3)[Gal(b1-4)]GlcNAc(b1-3)Gal(b1-3)[Fuc(a1-4)]GlcNAc
Procedure, shortened: as §1

[38] = target: Fuc(a1-3)[Gal(b1-4)]GlcNAc(b1-3)Gal(b1-4)[Fuc(a1-3)]GlcNAc
Procedure, shortened: as §1

[39] = target: Fuc(a1-3)[Gal(b1-4)]GlcNAc(b1-3)Gal(b1-4)[Fuc(a1-3)]GlcNAc(b1-3)Gal(b1-4)[Fuc(a1-3)]GlcNAc
Procedure, shortened: as §1

[40] = target: Fuc(a1-3)[Gal(b1-4)]GlcNAc(b1-3)GalNAc
Procedure, shortened: as §1

[41] = target: Fuc(a1-3)[Gal(b1-4)]GlcNAc(b1-6)GalNAc
Procedure, shortened: as §1

[42] = target: Fuc(a1-3)[Gal(b1-4)]GlcNAc(b1-6)[Gal(b1-3)GlcNAc(b1-3)]Gal(b1-4)Glc
Procedure, shortened: as §1

[43] = target: Fuc(a1-3)[Gal(b1-4)]GlcNAc6S
Procedure, shortened: as §1

[44] = target: Fuc(a1-3)[Gal3S(b1-4)]Glc
Procedure, shortened: as §1

[45] = target: Fuc(a1-3)[Gal3S(b1-4)]GlcNAc
Procedure, shortened: as §1

[46] = target: Fuc(a1-3)[Gal3S(b1-4)]GlcNAc6S
Procedure, shortened: as §1

[47] = target: Fuc(a1-3)[GalNAc(b1-4)]GlcNAc
Procedure, shortened: as §1

[48] = target: Fuc(a1-3)[GalNAc(b1-4)]GlcNAc6S
Procedure, shortened: as §1

[49] = target: Fuc(a1-4)GlcNAc
Procedure, shortened: as §1

[50] = target: Fuc(b1-3)GlcNAc
Procedure, shortened: as §1

[51] = target: Gal(a1-2)Gal
Procedure, shortened: as §1

[52] = target: Gal(a1-3)Gal
Procedure, shortened: as §1

[53] = target: Gal(a1-3)Gal(b1-3)GlcNAc
Procedure, shortened: as §1

[54] = target: Gal(a1-3)Gal(b1-3)GlcNAc(b1-2)Man
Procedure, shortened: as §1

[55] = target: Gal(a1-3)Gal(b1-3)GlcNAc(b1-2)Man(a1-3)[Gal(a1-3)Gal(b1-3)GlcNAc(b1-2)Man(a1-6)]Man(b1-4)GlcNAc(b1-4)GlcNAc
Procedure, shortened: as §1

[56] = target: Gal(a1-3)Gal(b1-3)GlcNAc(b1-3)GalNAc
Procedure, shortened: as §1

[57] = target: Gal(a1-3)Gal(b1-3)GlcNAc(b1-6)GalNAc
Procedure, shortened: as §1

[58] = target: Gal(a1-3)Gal(b1-3)[Fuc(a1-4)]GlcNAc(b1-2)Man(a1-3)[Gal(a1-3)Gal(b1-3)[Fuc(a1-4)]GlcNAc(b1-2)Man(a1-6)]Man(b1-4)GlcNAc(b1-4)GlcNAc
Procedure, shortened: as §1

[59] = target: Gal(a1-3)Gal(b1-4)Glc
Procedure, shortened: as §1

[60] = target: Gal(a1-3)Gal(b1-4)GlcNAc
Procedure, shortened: as §1

B1: PX14375F-bfa-539-21-539 (Bacteroides fragilis) (protein)
chain: EDFLQKDPPSSPSQSVFWQKKSDFESALAGTYSVMYSGVFSQIMPCLDGLTDNAIVQHSEGTYGWAKTIAQGDLTPNQGGFVTDIYGNCYKGIARVHILMEQLDQYTGSDISADEKKFMLAQCKALRGYFYSWLYQCYKEVPVVTQSLDLNTMYQPKATRAEVLNRVMTDYDEAISELPDKLYSDSQTSGRFTVSAVKALKARILLFDAYDSNGKAISSKMEEVLTLLQSIKGYSLAARVRDNFISEKQLASPEIMFSVRFLRPNLTHSMDLYYGAWAVLDPTRNMVDAFECTDGKPWGESPLTVRPDESILYGNDDALKKAERAKMFMNRDRRLYESVNHSMMANFVDDGFKDEEVQVNESNNKGPTGFSALKYVQPTDVTPGYSTVSDADIVVLRYAHVLLMIAEAENEAHGATTTALNAINEVRTRSGQPAIEAGISQDDLRERIRNEWRIETCFEGLRYFQLKRWKLMDKRVNGVEDPAYPGYIKVYKPAFEFFPIPQSEIDKAGGVLKQDPAYE
[1]
  glycan array binding signal (z-score): 0.409
[2]
  glycan array binding signal (z-score): -0.141
[3]
  glycan array binding signal (z-score): -0.101
[4]
  glycan array binding signal (z-score): -0.683
[5]
  glycan array binding signal (z-score): -0.207
[6]
  glycan array binding signal (z-score): -0.185
[7]
  glycan array binding signal (z-score): 1.2
[8]
  glycan array binding signal (z-score): 2.7
[9]
  glycan array binding signal (z-score): -0.451
[10]
  glycan array binding signal (z-score): -0.658
[11]
  glycan array binding signal (z-score): -0.41
[12]
  glycan array binding signal (z-score): -0.815
[13]
  glycan array binding signal (z-score): -0.023
[14]
  glycan array binding signal (z-score): -0.461
[15]
  glycan array binding signal (z-score): 0.51
[16]
  glycan array binding signal (z-score): -0.063
[17]
  glycan array binding signal (z-score): -1
[18]
  glycan array binding signal (z-score): -0.6
[19]
  glycan array binding signal (z-score): -0.532
[20]
  glycan array binding signal (z-score): 1.13
[21]
  glycan array binding signal (z-score): 0.57
[22]
  glycan array binding signal (z-score): 0.593
[23]
  glycan array binding signal (z-score): -0.295
[24]
  glycan array binding signal (z-score): -0.049
[25]
  glycan array binding signal (z-score): 0.17
[26]
  glycan array binding signal (z-score): -0.169
[27]
  glycan array binding signal (z-score): -0.062
[28]
  glycan array binding signal (z-score): -0.296
[29]
  glycan array binding signal (z-score): 0.27
[30]
  glycan array binding signal (z-score): 0.483
[31]
  glycan array binding signal (z-score): 0.277
[32]
  glycan array binding signal (z-score): -0.062
[33]
  glycan array binding signal (z-score): -0.498
[34]
  glycan array binding signal (z-score): 1.15
[35]
  glycan array binding signal (z-score): -0.146
[36]
  glycan array binding signal (z-score): -0.389
[37]
  glycan array binding signal (z-score): -0.287
[38]
  glycan array binding signal (z-score): -0.333
[39]
  glycan array binding signal (z-score): -0.532
[40]
  glycan array binding signal (z-score): -0.288
[41]
  glycan array binding signal (z-score): -0.059
[42]
  glycan array binding signal (z-score): -0.946
[43]
  glycan array binding signal (z-score): 0.215
[44]
  glycan array binding signal (z-score): -0.409
[45]
  glycan array binding signal (z-score): 0.117
[46]
  glycan array binding signal (z-score): -0.373
[47]
  glycan array binding signal (z-score): 0.462
[48]
  glycan array binding signal (z-score): -0.482
[49]
  glycan array binding signal (z-score): -0.217
[50]
  glycan array binding signal (z-score): -0.08
[51]
  glycan array binding signal (z-score): -0.206
[52]
  glycan array binding signal (z-score): -0.526
[53]
  glycan array binding signal (z-score): -0.042
[54]
  glycan array binding signal (z-score): -0.257
[55]
  glycan array binding signal (z-score): 2.35
[56]
  glycan array binding signal (z-score): -0.277
[57]
  glycan array binding signal (z-score): -0.221
[58]
  glycan array binding signal (z-score): 0.263
[59]
  glycan array binding signal (z-score): 0.077
[60]
  glycan array binding signal (z-score): -0.52
